Data: US20150056162A1 (published 2015)
Read-outs that look alike come from different tables or passages of the source.

What was measured:
IL-13Rα2, biotinylated [1] = target: T1, IL-13Rα2, biotinylated (human, UniProt Q14627 27-343, biotinylated (site not stated)); assay: SPR; kinetic
T1 chain: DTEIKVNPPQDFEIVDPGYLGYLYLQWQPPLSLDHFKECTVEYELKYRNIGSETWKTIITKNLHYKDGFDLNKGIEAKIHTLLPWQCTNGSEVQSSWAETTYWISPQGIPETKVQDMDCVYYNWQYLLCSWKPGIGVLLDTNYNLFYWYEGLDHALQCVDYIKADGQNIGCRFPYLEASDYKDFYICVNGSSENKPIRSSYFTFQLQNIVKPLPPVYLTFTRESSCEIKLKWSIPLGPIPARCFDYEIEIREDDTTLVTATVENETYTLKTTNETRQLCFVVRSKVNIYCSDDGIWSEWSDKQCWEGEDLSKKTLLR

IL-13Rα2, biotinylated [2] = target: T1, IL-13Rα2, biotinylated; assay: SPR; kinetic

B1: wild-type human IL-13 (ligand)
chain: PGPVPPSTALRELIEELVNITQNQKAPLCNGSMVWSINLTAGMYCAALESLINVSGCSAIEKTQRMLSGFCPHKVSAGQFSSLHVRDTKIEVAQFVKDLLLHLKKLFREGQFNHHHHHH
Kd (IL-13Rα2, biotinylated [1]): 1 pM
Kd (IL-13Rα2, biotinylated [2]): 1 pM
